# PubChem BioAssay AID493014 (National Center for Advancing Translational Sciences (NCATS), 2011)
# About 170 (0.05%) of roughly 340,000 compounds were called active. Another 26% or so got no clear call; they are omitted. Calls come from the whole dose curve; as a rule, active = well fitted inhibition curve with a large enough effect in the signal ratio, with a control signal flat (not every such curve was filed as active); inconclusive = small, poorly fitted or top-dose-only effect, or effect the other way, or a change in a side signal; inactive = flat fitted curve, though single readings scatter; the % refers to the signal ratio. The entries are a selection whose mix differs from that of the whole data set.
# Assay: qHTS Assay to Find Inhibitors of Chronic Active B-Cell Receptor Signaling;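 for activity change, negative = inhibition: plate controls were basal doxycycline-induced cells for no effect and cells given 10 µM MG132 for full effect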
# Details: ABC-DLBCL IkBa-CBG/CBR reporter, luminescence ratio (green luciferase fused to IkBa over red control in TMD8 lymphoma cells), 4 h; series mostly up to 46.1 µM; activity change, negative = inhibition: at the top concentration
# Summary of the method: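 TMD8 human ABC-DLBCL cells with doxycycline-inducible IκBα–green luciferase fusion and unfused red luciferase, in 0.5% FBS medium; compounds up to 46 uM, 4 h at 37C. Green/red luminescence ratio, filter-overlap corrected, fitted to concentration-response curves.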
# Potency is the fitted concentration of half-maximal effect.
SMILES,"activity change, negative = inhibition",Potency
Cc1cccc(-c2ccc3ncnc(NCc4cccs4)c3c2)c1,inactive: 7.39%,
O=C(Nc1ccc2c(c1)CCCN2C(=O)c1cccs1)c1c(F)cccc1F,inactive: 7.61%,
CC(C)(C)NC[C@H](O)COc1cccc2c1CCCC2=O,inactive: 1.86%,
C[C@H]1CC[C@]2(O[C@H](CCO)C[C@@H](O)[C@@H]2O)O1,inactive: -1.57%,
CCOC(=O)[C@@H]1[C@H]2COc3ccc(Br)cc3[C@H]2N2C(=O)N(c3cccc(F)c3)C(=O)[C@]12C,inactive: 11.6%,
O=C(NCc1ccccc1)C1=C[C@H](c2csc3ccccc23)C[C@H](OCCCCO)O1,inactive: 5.18%,
O=C(/C=C\c1ccccc1OC(=O)c1ccccc1F)c1cc2ccccc2o1,,active: 13 µM
CN1CCN(C(=O)C2=C[C@H](c3coc4ccccc4c3=O)C[C@H](OCc3ccc(CO)cc3)O2)CC1,inactive: -0.866%,
NC(=O)C1CCN(c2nc(-c3ccc(Br)cc3)cs2)CC1,,inactive
CCO[C@@H]1OC(C(=O)NC2CC2)=C[C@H](c2c[nH]c3ccccc23)[C@H]1CCCO,inactive: 0.043%,
Cn1ccnc1SCC(=O)c1ccc(Cl)cc1,,active: 17.8 µM
C[C@H]1CC[C@@]2(O[C@H](CCO)C[C@@H](O)[C@@H]2O)O1,inactive: 18.5%,
CCc1nn(CCCN2CCN(c3cccc(Cl)c3)CC2)c(=O)n1CCOc1ccccc1,inactive: 4.32%,
Nc1ncnc2nc[nH]c12,inactive: 1.21%,
O=C(OCC#CCSc1nnc(-c2cccc3ccccc23)o1)c1ccc(Br)cc1,inactive: 1.03%,
NC(=O)C1CCN(c2nc(-c3cccs3)cs2)CC1,inactive: -3.64%,
CCCCCn1c(=N)n(CC(O)COc2ccccc2OC)c2ccccc21 (stereo unspecified),inactive: -7.29%,
Cc1c(N=C/C=C2/N(C)c3ccccc3C2(C)C)c(=O)n(-c2ccccc2)n1C,inactive: 12.8%,
Cc1cc(/C=C2\NC(=O)NC2=O)c(C)n1-c1ccc(N2CCOCC2)cc1,inactive: 4.45%,
C=CCC[C@H](Cc1ccc(F)cc1)C(=O)OC[C@@H](C)NC(=O)[C@H](CC=C)CC(=O)N(CCO)Cc1ccccc1,inactive: 4.13%,
CN1CCN(C(=O)c2ccc3c(c2)N(Cc2cccc(Cl)c2)C(=O)c2ccccc2S3(=O)=O)CC1,inactive: 2.85%,
CCN1C(=NCCN2CCOCC2)N[C@@H](c2ccccc2)C(C(=O)OC)=C1C,inactive: -13.3%,
Cn1c(SCC(=O)N/N=C/C=C\c2ccccc2[N+](=O)[O-])nc2ccccc21,inactive: -5.25%,

SMILES,"activity change, negative = inhibition",Potency
COc1cc(/C=C/c2ccc(O)cc2)cc(OC)c1,,active: 12.6 µM
CCN1C(=NCCc2cccnc2)N[C@@H](c2ccccc2)[C@H](C(=O)OC)[C@H]1C,inactive: -12.3%,
COc1ccc(NC(=S)Nc2ccccc2)cc1,inactive: -1.31%,
CCOC(=O)/C(C#N)=C\C1=C(N2CCCC2)CC(C)(CC)OC1 (stereo unspecified),inactive: 21.1%,
CCOC(=O)[C@@H]1[C@H]2COc3cc(OC)ccc3[C@H]2N2C(=O)N(c3ccc(Br)cc3)C(=O)[C@]12C,inactive: -5.29%,
COc1cccc(-c2nc(-c3ccc(Br)o3)no2)c1,inactive: 11.8%,
C[C@@]12C(=O)N(c3ccccc3)C(=O)N1[C@@H]1c3ccccc3OC[C@@H]1[C@H]2c1ccccc1,inactive: 6.81%,
O=C(CCSCCc1ccccn1)Nc1cc(F)ccc1F,inactive: -6.43%,
CCOC(=O)c1c(S(=O)(=O)N2CCCC(C(=O)Nc3ccc(C)cn3)C2)c(C)n(C)c1C (stereo unspecified),inactive: 3.63%,
CC(C)(C)OC(=O)N[C@@H](C(=O)OC(C)(C)C)c1ccc2c(c1)OCO2,inactive: -0.712%,
CNCCCC12CCC(c3ccccc31)c1ccccc12,inactive: -8.13%,
CCC(C)[C@H](NC(=O)N1CC(=O)Nc2ccccc21)C(=O)N[C@@H](Cc1c[nH]c2ccccc12)C(=O)O (stereo partly specified),inactive: 3.2%,
CC(C)(C)CN1C(N)=NC[C@@H]1Cc1ccc(O)cc1,inactive: -1.61%,
CC(Sc1ccc2ccccc2n1)C(=O)O (stereo unspecified),inactive: -3.66%,
CC1CC(C)(C)NC(=S)O1 (stereo unspecified),inactive: 2.14%,
O=C(NC(=S)N1CCOCC1)c1ccc([N+](=O)[O-])cc1,,active: 23.1 µM
CC(=O)C[C@@H](O)CC(=O)[C@H]1OC(=O)CCCCCCCCc2ccccc21,inactive: -2.72%,
Nc1ccc(C(=O)O)cc1,inactive: -12%,
C=CC[C@H](CC(=O)NCCO)C(=O)N[C@@H](COC(=O)[C@@H](CC=C)CC(=O)OC(C)(C)C)Cc1c[nH]c2ccccc12,inactive: 0.175%,
Clc1ccccc1-c1nc(-c2ccncc2)no1,inactive: -1.98%,
COc1ccc(/C=C2\C(=O)ON=C2c2ccccc2)cc1OC,inactive: 7.2%,
O=C(NCc1nc2ccccc2[nH]1)C1=C[C@@H](C2CC2)C[C@@H](OCc2ccc(CO)cc2)O1,inactive: -16.9%,
CC(=O)CCCCn1c(=O)c2c(ncn2C)n(C)c1=O,inactive: -1.52%,

SMILES,"activity change, negative = inhibition",Potency
C[C@@H]1COC(=O)[C@H](CC(=O)OC(C)(C)C)C/C=C\C[C@@H](CC(=O)N[C@H](CO)Cc2ccccc2)C(=O)N1,inactive: -2.22%,
COC(=O)N1C(=O)[C@](Cc2ccccc2)(c2ccccc2)N1C(=O)OC,inactive: -0.551%,
O=C1OC[C@H]2CCCN2C(=O)[C@@H](CC(=O)N(CCO)Cc2ccccc2)C/C=C\C[C@H]1Cc1ccc(F)cc1,inactive: -0.0341%,
CCCSc1ccc([C@@H]2[C@H]3C(=O)N(C)C(=O)[C@H]3[C@]3(C(=O)OC)CCCN23)cc1OC,inactive: -2.7%,
CC(=O)O[C@]1(C(C)=O)CCC2C3C=C(C)C4=CC(=O)CC[C@]4(C)C3CC[C@@]21C (stereo partly specified),inactive: -0.0693%,
CCCN1C(=O)/C(=C/C=C2\N(CC)c3ccccc3C2(C)C)SC1=S,inactive: 9.24%,
O=C1NCC(O)=C1C=NC12CC3CC(CC(C3)C1)C2,inactive: -7.87%,
O=C1NC[C@@H](c2ccccc2)OC(=O)[C@@H](Cc2ccc(F)cc2)C/C=C\C[C@@H]1CC(=O)N(CCO)Cc1ccccc1,inactive: 4.35%,
O=C1N=C(N2CCOCC2)S/C1=C\c1ccc(-c2ccccc2Cl)o1,inactive: 1.43%,
C[C@H](CO)N1C[C@H](C)[C@@H](CN(C)C(=O)NC2CCCCC2)Oc2c(NC(=O)C3CCCCC3)cccc2C1=O,inactive: 0.173%,
O=C(O)c1cc(O)c2c(c1)[C@@H]([C@H]1c3cc(C(=O)O)cc(O)c3C(=O)c3c(O[C@@H]4O[C@H](CO)[C@@H](O)[C@H](O)[C@H]4O)cccc31)c1cccc(OC3O[C@H](CO)[C@@H](O)[C@H](O)[C@H]3O)c1C2=O (stereo partly specified),inactive: 0.177%,
COc1ccc(S(=O)(=O)Nc2ccc3c(c2)C(=O)N([C@@H](C)CO)C[C@H](C)[C@H](CN(C)S(=O)(=O)c2ccc(F)cc2)O3)cc1,inactive: -2.91%,
CC1=NN(c2ccccc2)C(=O)/C1=C\C=C1/N(C)c2ccccc2C1(C)C,inactive: 14.4%,
CC[n+]1c(/C=C(/C)SC)sc2ccccc21,inactive: 3.86%,
C=CC[C@@H](CC(=O)NCCO)C(=O)N[C@H](C)COC(=O)[C@@H](CC=C)CC(=O)OC(C)(C)C,inactive: 6.6%,
CCCC(=O)N1CCc2cc(OC)c(OC)cc2C1COc1ccccc1OC (stereo unspecified),inactive: -2.6%,
O/N=C1/CC/C(=N\O)c2nn(-c3ccccc3)nc21,,active: 5.8 µM
OCC#CCSc1nnc(-c2cccc3ccccc23)o1,inactive: -4.29%,
CC1=NN(c2ccccc2)C(=O)/C1=C\c1cn(C)c2ccccc12,inactive: 6.86%,
C=CC[C@@H](CC(=O)N(CCO)Cc1ccccc1)C(=O)N[C@H](COC(=O)[C@@H](CC=C)CC(=O)OC(C)(C)C)Cc1c[nH]c2ccccc12,inactive: -1.24%,
c1ccc(-c2nc[nH]c2-c2ccccc2)cc1,inactive: -4.38%,
O=C(O)/C=C/C(=O)NC1CCCCC1,inactive: 7.64%,
O=C(NCc1ccccc1)C1=C[C@@H](C2CC2)C[C@@H](OCc2ccc(CO)cc2)O1,inactive: 12.7%,

SMILES,"activity change, negative = inhibition",Potency
CC(C)(C)OC(=O)C[C@@H]1C/C=C\C[C@H](CC(=O)N(CCO)Cc2ccccc2)C(=O)N2CCC[C@H]2COC1=O,inactive: -0.545%,
CN1CCN(C(=O)C2=C[C@@H](c3csc4ccccc34)C[C@@H](OCCCCO)O2)CC1,inactive: -0.436%,
[O-]/[N+](=C/c1ccc(F)cc1)c1ccccc1,inactive: -13.6%,
CCOC(=O)CC(NC(=O)Cn1nnc(-c2ccccc2Cl)n1)c1ccc(OC)cc1 (stereo unspecified),inactive: -18.7%,
CC(C)(C)NNC(=S)Nc1cccc(C(F)(F)F)c1,,active: 7.94 µM
CC1(C)CC(=O)C2=C(C1)OC(N)=C(C#N)[C@@H]2c1ccccc1[N+](=O)[O-],inactive: 5.14%,
Cc1noc(NS(=O)(=O)c2ccc(N/C=C\C(=O)c3ccc4c(c3)OCO4)cc2)c1C,inactive: 6.66%,
Cc1c(Cl)cccc1NC(=S)N=Nc1c(O)n(CN2CCOCC2)c2ccccc12,,active: 7.31 µM
O=C1NC(=Nc2ccccc2)S/C1=C\c1cccnc1,inactive: 1.91%,
CC(/C=C/c1ccc(Cl)o1)=C\C(=O)O,inactive: 8.71%,
c1ccc(C2=Nn3c(nnc3-c3cc(-c4ccccc4)n[nH]3)SC2)cc1,,active: 11.6 µM
O=C(N/C(=C\c1ccccc1)C(=O)N1CCCCC1)c1ccc(Br)o1,inactive: 3.3%,
CC(=O)c1cc2c(cc1N/C(=N/S(=O)(=O)c1ccc(C)cc1)c1ccccc1)OCO2,inactive: 4.83%,
CCOC(=O)C1CCCN(S(=O)(=O)c2ccc(F)c(C(=O)Nc3ccc(F)c(F)c3)c2)C1 (stereo unspecified),inactive: 8.65%,
CC(C)(C)OC(=O)C[C@H]1C/C=C\C[C@H](CC(=O)N[C@H](CO)Cc2ccccc2)C(=O)N2CCC[C@H]2COC1=O,inactive: -0.489%,
Cc1cc(N2C(=O)C3C4CC(C(Br)C4Br)C3C2=O)no1 (stereo unspecified),inactive: 0.466%,
CC(C)(C)OC(=O)C[C@H]1C/C=C\C[C@@H](CC(=O)N[C@@H](CO)Cc2ccccc2)C(=O)N2CCC[C@@H]2COC1=O,inactive: -1.39%,
Cn1ccc2cc(-c3ccc4ncnc(NCc5cccs5)c4c3)ccc21,inactive: -12.9%,
O=C(C[C@H]1C/C=C\CC[C@H](Cc2ccc(F)cc2)C(=O)OCCNC1=O)NCCO,inactive: 1.72%,
CCOC(=O)[C@@H]1[C@H]2COc3ccccc3[C@@H]2N2C(=O)N(c3cccc(Cl)c3)C(=O)[C@]12C,inactive: 11.5%,
CC1=CS(=O)(=O)CC1Sc1nc2ccccc2[nH]1 (stereo unspecified),inactive: -0.385%,
C[C@@]12C(=O)N(c3ccc(F)cc3)C(=O)N1[C@@H]1c3ccccc3OC[C@@H]1[C@H]2c1ccccc1,inactive: -1.75%,
